According to PubChem BioAssay AID2546 (National Center for Advancing Translational Sciences (NCATS), 2010):
Hit rate of the full screen: of about 310,000 compounds, about 11,000 (3.5%) were called active. The inconclusive results got no clear call from the source; some entries with a clear call stand among them for comparison. Calls follow the shape of the dose curve; as a rule, active = well fitted inhibition curve with a large enough effect; inconclusive = small, poorly fitted or top-dose-only effect, or effect the other way; inactive = flat fitted curve, though single readings scatter. Potencies of inconclusive entries are left out as doubtful fits.

Experiment: VP16 counterscreen qHTS for inhibitors of ROR gamma transcriptional activity;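 also: Gal4-VP16 expression switched on by copper sulfate through the metallothionein promoter; nearly all actives have a fitted effect of over 50% in size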
Conditions: Drosophila S2 Gal4-VP16 UAS-luciferase, luminescence, 20 h; activity, negative = inhibition: at 53.6 µM (top of the series)
% is scaled to controls: 0 for no effect and ±100 for the full control effect; potency is read from the fitted curve at half-maximal effect; tags tell the direction and shape of the fitted curve.

SMILES | Potency | activity, negative = inhibition
COc1ccc(-c2noc(CCC(=O)NC3CCN(Cc4ccccc4)CC3)n2)cc1 | inconclusive [inhibitor, single point] | 
O=C(CN1C(=O)NC2(CCCC2)C1=O)OCCOc1ccccc1 |  | inactive: 16.2%
CCCCNC(=S)Nc1ccc(F)cc1 | inconclusive [inhibitor, single point] | 
O=C(NNC(=O)c1cc(-c2ccncc2)nc2ccccc12)Nc1ccc(F)cc1 |  | inactive: -4.14%
CC(=O)Oc1ccc(C(=O)Nc2ccc(S(=O)(=O)NCC3CCCO3)cc2)cc1 (centres undefined) | inconclusive [inhibitor, partial curve, poor fit] | 
COc1ccccc1N=C1NC(=O)/C(=C/c2ccc(N(C)C)cc2)S1 | inconclusive [inhibitor, single point] | 
CCN(CC)CCNC(=O)c1ccc(NC(=O)c2cccc(S(=O)(=O)Nc3ccc(C)cc3)c2)cc1 | active: 15.8 µM | 
O=C1NC(c2ccccc2)=C(c2nc3ccccc3s2)C(c2ccc(F)cc2)N1 (centres undefined) | inconclusive [inhibitor, single point] | 
Nc1cc(S(=O)(=O)Nc2ccc(Br)cc2)ccc1Cl | inconclusive [inhibitor, single point] | 
O=C(NCC(c1cccnc1)N1CCN(c2ccccc2F)CC1)c1ccco1 (centres undefined) |  | inactive: 1.38%
CN(C)c1cc[n+](CC(=O)c2ccc(-c3ccccc3)cc2)cc1 | inconclusive [inhibitor, single point] | 
CCNS(=O)(=O)c1ccc(NC(=O)c2ccccc2OCC)cc1 | inconclusive [inhibitor, single point] | 
CCOC(=O)c1c(S(=O)(=O)NCc2ccc(C)o2)c(C)n(C)c1C |  | inactive: -5.71%
O=C(Cn1nc(CNc2ccc(Br)cc2)[n+]2c1CCCCC2)c1ccc([N+](=O)[O-])cc1 | inconclusive [inhibitor, single point] | 
CCN(CC)c1ccc(C=NCCNS(=O)(=O)c2ccc(C)cc2)cc1 |  | inconclusive: -37.7% [inhibitor]
Cc1nn(C)c(C)c1CN(C)S(=O)(=O)c1ccc2ccccc2c1 | active: 5.01 µM | 
Cc1ccc2oc(C(=O)Nc3nnc(C)s3)c(C)c2c1 | inconclusive [inhibitor, single point] | 
Cc1ccccc1NS(=O)(=O)c1ccc(C(=O)N2CCN(c3ccccn3)CC2)cc1 | inconclusive [inhibitor, single point] | 
O=C(c1ccc(-c2nc3ccccc3s2)s1)N1CCOCC1 | inconclusive [inhibitor, full curve] | 
